# Laboratory results as given in the supplement of paper PMC8728848.
# This is one part of the list.
# What was measured:
# Assay in all cases: glycan array binding signal (z-score within array); higher = stronger binding
# Details in all cases: glycan notation: IUPAC condensed, linker removed
# Glc(b1-6)Glc = molecular target: Glc(b1-6)Glc
# In short: (§1)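 The binding signal is a Z-score computed within each array. Data were drawn from 3228 arrays in the Consortium for Functional Glycomics database, restricted to those with a known protein sequence. Scores were averaged over arrays of the same protein sequence at different concentrations or buffers, and over linkers, and negative values can be taken as non-binding.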
# GlcA(b1-3)Gal = molecular target: GlcA(b1-3)Gal
# In short: as §1
# GlcA(b1-3)GlcNAc = molecular target: GlcA(b1-3)GlcNAc
# In short: as §1
# GlcA(b1-6)Gal = molecular target: GlcA(b1-6)Gal
# In short: as §1
# [1] = molecular target: GlcA3S(b1-3)Gal(b1-4)GlcNAc(b1-2)Man
# In short: as §1
# [2] = molecular target: GlcA3S(b1-3)Gal(b1-4)GlcNAc(b1-3)Gal(b1-4)Glc
# In short: as §1
# [3] = molecular target: GlcNAc(a1-3)Gal(b1-4)GlcNAc
# In short: as §1
# [4] = molecular target: GlcNAc(a1-4)Gal(b1-3)GlcNAc
# In short: as §1
# [5] = molecular target: GlcNAc(a1-4)Gal(b1-4)GalNAc
# In short: as §1
# [6] = molecular target: GlcNAc(a1-4)Gal(b1-4)GlcNAc
# In short: as §1
# [7] = molecular target: GlcNAc(a1-4)Gal(b1-4)GlcNAc(b1-3)Gal(b1-4)Glc
# In short: as §1
# [8] = molecular target: GlcNAc(a1-4)Gal(b1-4)GlcNAc(b1-3)Gal(b1-4)GlcNAc
# In short: as §1
# [9] = molecular target: GlcNAc(a1-4)Gal(b1-4)GlcNAc(b1-3)Gal(b1-4)GlcNAc(b1-3)Gal(b1-4)GlcNAc
# In short: as §1
# [10] = molecular target: GlcNAc(a1-4)Gal(b1-4)GlcNAc(b1-3)Gal(b1-4)[Fuc(a1-3)]GlcNAc(b1-3)Gal(b1-4)[Fuc(a1-3)]GlcNAc
# In short: as §1
# [11] = molecular target: GlcNAc(a1-6)Gal(b1-4)GlcNAc
# In short: as §1
# [12] = molecular target: GlcNAc(b1-2)Gal(b1-3)GalNAc
# In short: as §1
# [13] = molecular target: GlcNAc(b1-2)Man(a1-3)[GlcNAc(b1-2)Man(a1-6)]Man(b1-4)GlcNAc(b1-4)GlcNAc
# In short: as §1
# [14] = molecular target: GlcNAc(b1-2)Man(a1-3)[GlcNAc(b1-2)Man(a1-6)]Man(b1-4)GlcNAc(b1-4)[Fuc(a1-6)]GlcNAc
# In short: as §1
# [15] = molecular target: GlcNAc(b1-2)Man(a1-3)[GlcNAc(b1-4)][GlcNAc(b1-2)Man(a1-6)]Man(b1-4)GlcNAc(b1-4)GlcNAc
# In short: as §1
# [16] = molecular target: GlcNAc(b1-2)Man(a1-3)[GlcNAc(b1-4)][GlcNAc(b1-2)Man(a1-6)]Man(b1-4)GlcNAc(b1-4)[Fuc(a1-6)]GlcNAc
# In short: as §1
# [17] = molecular target: GlcNAc(b1-2)[GlcNAc(b1-4)]Man(a1-3)[GlcNAc(b1-2)Man(a1-6)]Man(b1-4)GlcNAc(b1-4)GlcNAc
# In short: as §1
# [18] = molecular target: GlcNAc(b1-2)[GlcNAc(b1-4)]Man(a1-3)[GlcNAc(b1-4)][GlcNAc(b1-2)Man(a1-6)]Man(b1-4)GlcNAc(b1-4)GlcNAc
# In short: as §1
binder,measurement,setting,value
Mermaid3 (Stilbonema majum) (protein) MGSSHHHHHHSSGLVPRGSHMAASGWLRSPQGTVVKLYRRSLSWSKADEFCKDVDGRLVVDRTADMHLFLIKNVLKEKKSRVWVGLRRTASHSRTWIWSDGTRQNEGDLDANLWLRDEPNDAAGEEECALFMYSPWEKAWGLNDYLCRGGCRNYQFICEKWIR,glycan array binding signal (z-score),Glc(b1-6)Glc,-0.413
same,glycan array binding signal (z-score),GlcA(b1-3)Gal,-0.815
same,glycan array binding signal (z-score),GlcA(b1-3)GlcNAc,1.68
same,glycan array binding signal (z-score),GlcA(b1-6)Gal,1.66
same,glycan array binding signal (z-score),[1],-0.389
same,glycan array binding signal (z-score),[2],-0.609
same,glycan array binding signal (z-score),[3],1.05
same,glycan array binding signal (z-score),[4],-0.713
same,glycan array binding signal (z-score),[5],-0.534
same,glycan array binding signal (z-score),[6],-0.636
same,glycan array binding signal (z-score),[7],-0.717
same,glycan array binding signal (z-score),[8],-0.696
same,glycan array binding signal (z-score),[9],-0.462
same,glycan array binding signal (z-score),[10],0.107
same,glycan array binding signal (z-score),[11],-0.827
same,glycan array binding signal (z-score),[12],-0.193
same,glycan array binding signal (z-score),[13],-0.276
same,glycan array binding signal (z-score),[14],-0.369
same,glycan array binding signal (z-score),[15],0.111
same,glycan array binding signal (z-score),[16],-0.468
same,glycan array binding signal (z-score),[17],-0.823
same,glycan array binding signal (z-score),[18],-0.724
